{
  "source": "PubChem BioAssay AID1508649",
  "about": "(National Center for Advancing Translational Sciences (NCATS), 2021)",
  "note": "About 830 (1.9%) of roughly 43,000 compounds were called active. This list was built around the results that the source calls inconclusive (neither active nor inactive); the mix of calls is not that of the screen. The calls were made as follows: active = clear falling dose curves in both reporters; inconclusive = both reporters move, but less clearly or upward; inactive = either reporter flat; the % is the NLuc reporter signal. Potencies of inconclusive entries are left out as doubtful fits. Potency is read from the fitted curve at half-maximal effect; tags tell the direction and shape of the fitted curve.",
  "data": [
    {"experiment": "Cell-based coincidence reporter assay to measure PMP22 gene transcription in S16 Pmp22-F2sN cells - Primary screen", "settings": "S16 Pmp22-F2sN Schwann cells (luciferase reporters placed in the Pmp22 gene), FLuc/NLuc coincidence luminescence, 24 h; measured here: NLuc reporter readout, at 57.5 µM (top of the series)", "outline": "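S16 Schwann cells carrying FLuc/NLuc coincidence reporter in the Pmp22 3' UTR treated with compound 24 h at 37C; FLuc then NLuc luminescence read sequentially by dual-luciferase reagents.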", "values": [
      {"compound": "Cc1ccc(-c2onc(C)c2C)cc1S(=O)(=O)N1CCOc2ccc(Cl)cc21", "Potency": "inconclusive [phenotype inactive, partial curve]"},
      {"compound": "O=C(CN1C(=O)COc2ccc(S(=O)(=O)NC3CCCC3)cc21)NCc1ccc(Cl)cc1", "Potency": "inactive"},
      {"compound": "COc1ccc(C(=O)NCCn2cc(SCc3c(F)cccc3Cl)c3ccccc32)cc1", "Potency": "inconclusive [phenotype inactive, single point]"},
      {"compound": "CCN1CCC(N(Cc2ccc3c(c2)OCO3)C(=O)Nc2cc(F)ccc2F)CC1", "Potency": "inactive"},
      {"compound": "Cc1cc(C)c(NC(=O)Cn2c(=O)n(CCC(=O)N3CCc4ccccc4C3)c(=O)c3ccccc32)c(C)c1", "Potency": "inconclusive [phenotype inactive, partial curve, poor fit]"},
      {"compound": "Cn1nnnc1SCCCNCc1ccccc1OCc1ccc(Cl)cc1", "Potency": "inconclusive [phenotype inactive, partial curve]"},
      {"compound": "CCC(=O)NCCc1nc2cc(NC(=O)c3cccc(Br)c3)ccc2n1C", "Potency": "inactive"},
      {"compound": "COc1ccc(Cn2ccc3nc(C)c(C(=O)N4CCN(c5cccc(OC)c5)CC4)cc3c2=O)cc1", "Potency": "inactive"},
      {"compound": "CCCCc1cc(=O)oc2cc(C)c3c(C(C)(C)C)coc3c12", "Potency": "inconclusive [phenotype inactive, single point]"},
      {"compound": "Cc1ccc(C)c(NC(=O)CN2C(=O)c3cccc4cccc2c34)c1", "Potency": "inconclusive [phenotype inactive, single point]"},
      {"compound": "CCN(CC)C(=O)Cn1cc(SCC(=O)Nc2cccc(F)c2)c2ccccc21", "Potency": "inactive"},
      {"compound": "CCOC(=O)c1cc(-c2ccc(C)cc2)n(CCC(=O)Nc2nc3c(C)cccc3s2)c1C", "Potency": "inconclusive [phenotype inactive, single point]"},
      {"compound": "CC(C)NC(=O)CCn1c(SCc2c(F)cccc2Cl)nc2c(sc3ccccc32)c1=O", "Potency": "inconclusive [phenotype inactive, full curve, poor fit]"},
      {"compound": "CCOC(=O)N1CCN(Cc2nc3cc(NC(C)=O)ccc3n2C(C)C)CC1", "Potency": "inconclusive [phenotype inactive, partial curve]"},
      {"compound": "O=C(c1ccc2c(c1)N(Cc1ccccc1)C(=O)c1ccccc1S2(=O)=O)N1CCCC1", "Potency": "inconclusive [phenotype inactive, single point]"},
      {"compound": "COc1cccc(CNC(=O)CSc2ncc3c(n2)-c2cc(Cl)ccc2N(C)S3(=O)=O)c1", "Potency": "inactive"},
      {"compound": "CCOC(=O)c1c(C)[nH]c(CCC(=O)NCCCN2CCN(c3cc(Cl)ccc3C)CC2)c1C", "Potency": "active: 15 µM"},
      {"compound": "COc1ccc(NC(=O)CCCn2c(=O)c3cccn3c3ccccc32)c(OC)c1", "Potency": "inconclusive [phenotype inactive, single point]"},
      {"compound": "Cc1ccc(C)n1-c1c(C(=O)NCC(C)c2ccccc2)sc2ncccc12", "note": "(stereo not given)", "Potency": "inconclusive [phenotype inactive, single point]"},
      {"compound": "CC(=O)c1ccc(N2CCN(c3ncnc4c3cnn4-c3cc(Cl)ccc3C)CC2)cc1", "Potency": "inconclusive [phenotype inactive, single point]"},
      {"compound": "COc1ccccc1CNC(=O)c1nnn(CC(=O)Nc2c(C)cccc2C)c1N", "Potency": "inactive"},
      {"compound": "CC(C)c1ccc(CNc2n[nH]c(-c3ccco3)n2)cc1", "Potency": "inactive"},
      {"compound": "CCOc1ccc2oc(=O)cc(CN3CCN(c4ccccc4OC)CC3)c2c1", "Potency": "inconclusive [phenotype inactive, single point]"},
      {"compound": "Cc1c(CCNC(=O)C(C)(C)C)sc2nc(-c3ccc(F)cc3)nn12", "Potency": "inconclusive [phenotype inactive, single point]"},
      {"compound": "O=C(Cn1c(-c2cccs2)cc2ccccc21)NCCCN1CCN(c2ccccc2F)CC1", "Potency": "inconclusive [phenotype inactive, single point]"},
      {"compound": "CCN(C(=O)c1cc2c(s1)-c1ccccc1OC2)c1cccc(C(F)(F)F)c1", "Potency": "active: 20 µM"},
      {"compound": "COc1ccc(NC(=O)Nc2nnc(N(CC(C)C)CC(C)C)s2)c(OC)c1", "Potency": "inconclusive [phenotype inactive, single point]"},
      {"compound": "COC(=O)c1ccccc1NC(=O)CCS(=O)(=O)c1nc(-c2ccc3c(c2)OCO3)cc(C(F)(F)F)n1", "Potency": "active: 14.1 µM"},
      {"compound": "Cc1ccccc1NC(=O)c1ccc(N(Cc2ccccc2)S(C)(=O)=O)cc1", "Potency": "inconclusive [phenotype inactive, single point]"},
      {"compound": "CCOc1cc(S(=O)(=O)NCCc2c(C)[nH]c3ccc(C)cc23)ccc1Br", "Potency": "inconclusive [phenotype inactive, single point]"},
      {"compound": "Cc1cccc(Cn2c(Cc3ccccc3)nc3ccccc32)c1", "Potency": "inactive"},
      {"compound": "CCOC(=O)c1c(NC(=O)c2cc(CC)on2)sc(C(C)=O)c1C", "Potency": "inactive"},
      {"compound": "Cc1ccccc1CNC(=O)C(=O)NCC(c1cccs1)S(=O)(=O)c1cccs1", "note": "(stereo not given)", "Potency": "inactive"},
      {"compound": "O=C(NCc1ccc(F)cc1)c1ccc2oc(=O)n(Cc3ccccc3)c2c1", "Potency": "inconclusive [phenotype inactive, single point]"},
      {"compound": "O=C(CSc1oc(-c2ccc(F)cc2)nc1S(=O)(=O)c1ccc(Br)cc1)NC1CCCCC1", "Potency": "inactive"},
      {"compound": "CCN1CCN(c2ncnc3c2cnn3-c2cc(Cl)ccc2C)CC1", "Potency": "inconclusive [phenotype inactive, single point]"},
      {"compound": "CCOC(=O)c1cnc(N2CCN(c3ccc(OC)cc3)CC2)c2ccccc12", "Potency": "inconclusive [phenotype inactive, single point]"},
      {"compound": "O=C(C1CCC1)N1CCc2cc(S(=O)(=O)NCCc3ccccc3)ccc21", "Potency": "inconclusive [phenotype inactive, single point]"},
      {"compound": "COc1ccc(CNC(=O)CCc2c(C)nn(-c3ccc(N4CCOCC4)nn3)c2C)c(OC)c1", "Potency": "inactive"},
      {"compound": "COc1ccc(-n2nc(C(=O)NCCc3ccc(Cl)cc3)c3c4ccccc4n(C)c3c2=O)cc1", "Potency": "inconclusive [phenotype inactive, single point]"}
    ]}
  ]
}
